The list shows a part of the results. These are noisy estimates, calculated here from bound and input reads.
Target: T1, Pho4 (S. cerevisiae) (UniProt P07270)
T1 sequence: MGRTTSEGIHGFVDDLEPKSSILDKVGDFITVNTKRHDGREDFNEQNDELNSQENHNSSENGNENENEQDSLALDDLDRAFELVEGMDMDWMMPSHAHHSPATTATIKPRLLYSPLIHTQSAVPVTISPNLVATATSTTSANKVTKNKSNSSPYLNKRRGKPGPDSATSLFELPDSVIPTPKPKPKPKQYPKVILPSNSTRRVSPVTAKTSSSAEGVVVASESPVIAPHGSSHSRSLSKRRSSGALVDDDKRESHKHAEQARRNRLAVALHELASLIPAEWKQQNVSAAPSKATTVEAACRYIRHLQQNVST
Test: relative binding free energy (BET-seq); higher = weaker binding
Details: reference: library average

| Sequence | relative binding free energy [kcal/mol] |
| --- | --- |
| CCTTTCACGTGGGGGT | 0.04 |
| TAGCGCACGTGATATT | 0.13 |
| GCATTCACGTGAGTTA | 0.47 |
| AGGTTCACGTGAATTA | 0.21 |
| AAGGGCACGTGTATCG | 0.07 |
| TTGAGCACGTGGGCGA | -0.16 |
| CATGACACGTGTAGGT | 0.05 |
| GATTGCACGTGGTCGA | -0.11 |
| TGTTACACGTGTGCGA | -0.02 |
| TTTCGCACGTGTAAGT | 0.22 |
| ATTCTCACGTGGGGAG | 0.04 |
| TTAGCCACGTGGTGAT | -0.08 |
| AGGAACACGTGGATGT | 0.13 |
| ATTTTCACGTGTCTGT | 0.08 |
| TTATTCACGTGATGTG | 0.36 |
| TTAAGCACGTGATATT | -0.04 |
| CAAGGCACGTGGATGT | -0.15 |
| ACGGGCACGTGTTTTA | -0.01 |
| TATGGCACGTGTGCTA | -0.04 |
| CATGGCACGTGGGGGT | -0.21 |
| TTGAACACGTGGGGTT | -0.01 |
| AGGGTCACGTGGATCT | 0.17 |
| TTCGACACGTGGGGAG | -0.13 |
| TTTGGCACGTGGGAGA | -0.12 |
| TGGGTCACGTGGAACT | 0.06 |

| Sequence | relative binding free energy [kcal/mol] |
| --- | --- |
| ATTAACACGTGATTGG | 0.08 |
| TTAGACACGTGTAAAT | 0.34 |
| AAGTTCACGTGTCGAT | 0.3 |
| TGGGCCACGTGAGAAG | 0.21 |
| TGTGACACGTGCGTAG | -0.11 |
| TTATACACGTGGGAGG | -0.06 |
| TTTGACACGTGATAGG | 0.11 |
| TCGTTCACGTGGAGGG | 0.24 |
| TATGACACGTGTCGTA | 0.03 |
| AAAGGCACGTGACGTT | 0.03 |
| TTTTGCACGTGGTTGC | 0.01 |
| TTTAGCACGTGTACTA | 0.07 |
| TCAGGCACGTGTGTCG | -0.13 |
| GGATTCACGTGTCAGA | 0.39 |
| GCTGGCACGTGTTGGT | -0.11 |
| GGTGACACGTGTTAAT | 0.02 |
| GGTGACACGTGTTCTG | -0.1 |
| TATCTCACGTGGTGAT | 0.21 |
| TTTGGCACGTGTTTTA | -0.05 |
| ACGCTCACGTGGTGGG | 0.08 |
| GGGAGCACGTGCTGGA | -0.14 |
| TTTTACACGTGGTTGT | 0.11 |
| ATCTGCACGTGGGTAA | -0.04 |
| TTTTTCACGTGCATAT | 0.16 |
| TTATGCACGTGATCTG | -0.02 |

| Sequence | relative binding free energy [kcal/mol] |
| --- | --- |
| TCTGGCACGTGGAAGG | 0.09 |
| GGCGGCACGTGAAATG | 0.28 |
| ATGAGCACGTGAGAGA | 0.26 |
| GGGGACACGTGACAGG | 0.18 |
| TATGTCACGTGATTGA | 0.2 |
| TAGGGCACGTGATTGC | -0.02 |
| CGATGCACGTGTTGGT | -0.13 |
| CGAGGCACGTGGTTGG | -0.07 |
| GGTTGCACGTGCGTCT | -0.04 |
| CATTACACGTGGGGGC | -0.05 |
| GGCTGCACGTGAGGGA | 0.27 |
| TTGTGCACGTGCGTGT | -0.16 |
| TTTTGCACGTGTTGGG | 0.14 |
| AGAATCACGTGTTGGA | 0.27 |
| GGGGTCACGTGGGGTA | 0.02 |
| GTATTCACGTGTATTA | 0.14 |
| ATGGACACGTGCTGTT | -0.17 |
| GGGTTCACGTGTTGGC | 0.27 |
| GATTACACGTGTGCGG | 0.15 |
| TGAGTCACGTGCGCGT | 0.18 |
| TGTTGCACGTGAAGGT | 0.17 |
| AGGTACACGTGCATGG | -0.07 |
| TGTATCACGTGCGTTA | -0.01 |
